Laboratory results: PubChem BioAssay AID624296 (National Center for Advancing Translational Sciences (NCATS), 2012)
Where “and” joins values, the source holds several entries; their conditions need not be identical. Identical values can stand only once. The whole screen tested about 350,000 compounds, of which about 9,900 (2.8%) were called active. This list was built around the results that the source calls inconclusive (neither active nor inactive); the mix of calls is not that of the screen. Calls come from the whole dose curve; as a rule, active = well fitted activation curve with a large enough effect; inconclusive = small, poorly fitted or top-dose-only effect; inactive = no such curve, though single readings can be large or run the other way. Where the call is inconclusive, the potency comes from a doubtful curve fit.

Assay: A quantitative high throughput screen for small molecules that induce DNA re-replication in MCF 10a normal breast cells. For activity, positive = re-replication: % of control where 0% means no effect. Note: nearly all actives have a fitted effect of over 50% in size.
Settings: MCF 10A DNA re-replication, Hoechst nuclear intensity, 48 h; activity, positive = re-replication: at 46.1 µM (top of the series)
Potency is the fitted concentration of half-maximal effect; tags give direction and shape of the fitted curve.

Row | Compound | activity, positive = re-replication | Potency
1 | CCC(CO)Oc1cc(NC(=O)c2cccc(OC)c2)c2ncn(C(C)C)c2c1 (configuration not stated) | inactive: 2.4% | 
2 | CC(C)(C)c1cc(/C=N/NC(=O)Cc2nc3ccccc3[nH]2)cc(C(C)(C)C)c1O |  | inconclusive: 29.1 µM [activator, single point]
3 | CCOC(=O)C(C)Sc1nc(-c2ccco2)cc(C(F)(F)F)c1C#N (configuration not stated) |  | inconclusive: 29.1 µM [activator, single point]
4 | O=C(O)c1ccc(Oc2ccc(S(=O)(=O)c3ccc(C(=O)O)c(C(=O)O)c3)cc2)cc1 |  | inconclusive: 1.16 µM [activator, single point]
5 | CNC(=O)c1nc(C)n(-c2ccc(Cl)cc2Cl)n1 | inactive: -0.447% | 
6 | COc1ccc(CN2CCc3c([nH]c4ccccc34)C2)c(OC)c1C |  | inconclusive: 25.9 µM [activator, single point]
7 | O=S(=O)(Nc1ccc(-c2ccccc2)cc1)c1ccccc1 |  | inconclusive: 18.4 µM [activator, single point]
8 | COc1ccc(NC(=O)CSc2nnc(N)s2)cc1S(=O)(=O)N1CCCCC1 |  | inconclusive: 29.1 µM [activator, partial curve, poor fit]
9 | CCC(=O)NC(O)C(=O)c1ccc(C)cc1 (configuration not stated) |  | inconclusive: 0.1 µM [activator, full curve, poor fit]
10 | CC(NCCC(c1ccccc1)c1ccccc1)c1ccccc1 (configuration not stated) |  | inconclusive: 33.5 µM [activator, single point] and inconclusive: 731 nM [activator, partial curve, poor fit] and inconclusive: 18.4 µM [activator, single point]
11 | Nc1ncnc(Nc2ccc(F)cc2)n1 | inactive: 13% | 
12 | Cc1ccc(NS(=O)(=O)c2ccc3c(c2)C(=O)c2ccccc2C3=O)c(C)c1 |  | inconclusive: 29.1 µM [activator, single point]
13 | CCc1ccc(NC(=O)C2CCN(S(=O)(=O)c3ccc4c(c3)CC(C)N4C(C)=O)CC2)cc1 (configuration not stated) | inactive: 9.11% | 
14 | CCCCC1(C)NC(=O)N(CC(=O)Nc2ccc(Cl)cc2C)C1=O (configuration not stated) |  | inconclusive: 6.51 µM [activator, single point]
15 | CC(=O)Nc1ccc(S(=O)(=O)NNC(=O)c2cccc(Cl)c2)cc1 | inactive: 0.512% | 
16 | COc1ccc(CCNC(=O)c2ccc3nc(-c4ccco4)c(-c4ccco4)nc3c2)cc1OC |  | inconclusive: 11.6 µM [activator, partial curve, poor fit]
17 | CNC(=O)c1ccccc1NC(=O)C1CC(=O)N(C(C)C)C1 (configuration not stated) | inactive: 0.28% | 
18 | O=C(CNC(=O)c1cccnc1)N=Nc1c(O)[nH]c2c(Br)cc(Br)cc12 |  | inconclusive: 0.0041 µM [activator, full curve, poor fit]
19 | COc1ccc(OC)c(N2C(=O)C(Cl)=C(N3CCCCC3)C2=O)c1 |  | inconclusive: 5.62 µM [activator, partial curve, poor fit]
20 | OCCOCCn1c(CCNc2nc(-c3ccc(F)cc3)cs2)nc2cc(C(F)(F)F)ccc21 |  | inconclusive: 29.1 µM [activator, single point]
21 | CCN1CCN(Cc2ccc(NC(=O)c3cc(NC(=O)c4cc5cccc(OC)c5o4)cc(OC)c3)cc2C(F)(F)F)CC1 | inactive: 22% | 

Row | Compound | activity, positive = re-replication | Potency
22 | Cc1ccc(NS(=O)(=O)c2cccc(C(=O)N3CCN(c4ncccn4)CC3)c2)cc1 |  | inconclusive: 10.3 µM [activator, partial curve, poor fit]
23 | COc1ccc(NC(=O)c2ccc(COc3ccccc3Br)o2)c(OC)c1 |  | inconclusive: 5.17 µM [activator, partial curve, poor fit]
24 | CC12CCC(C(=O)Nc3ccc(Cl)cc3)([C@H](Br)C1=O)C2(C)C (some centres not stated) | inactive: -5.3% | 
25 | O=C1c2cccc3cccc(c23)C(=O)N1c1cccnc1 |  | active: 18.4 µM
26 | Cc1cccc(N2CCN(S(=O)(=O)c3c(C)[nH]c(C)c3C(=O)N3CCCC3)CC2C)c1 (configuration not stated) | inactive: 9.42% | 
27 | CC(=O)Nc1ccc(S(=O)(=O)Nc2nc3ccccc3nc2Nc2ccc3ccccc3c2)cc1 |  | inconclusive: 23.1 µM [activator, single point]
28 | Cc1ncc([N+](=O)[O-])n1CCOC(=O)C12CC3CC(CC(C3)C1)C2 | inactive: 10.4% | 
29 | O=C1c2ccccc2-c2onc3ccc(N4CCCC4)c1c23 |  | inconclusive: 29.1 µM [activator, single point]
30 | C/C(=N/NC(=O)COc1cc(C)ccc1C(C)C)C(=O)O |  | inconclusive: 20.6 µM [activator, single point]
31 | O=c1[nH]c(/C=C/c2ccc(Br)cc2)nc2ccccc12 |  | inconclusive: 5.8 µM [activator, partial curve]
32 | COCC(=O)N1CCC(Oc2ccc(C(=O)N3CCSCC3)cc2)CC1 | inactive: -2.69% | 
33 | CCOC(=O)c1c(NC(=O)C[n+]2ccc(Cc3ccccc3)cc2)sc(C)c1C |  | inconclusive: 20.6 µM [activator, single point]
34 | CCCCCOc1ccc(Br)cc1CSC(=N)N |  | inconclusive: 20.6 µM [activator, partial curve, poor fit]
35 | Cc1cc(C(F)(F)F)nc(NCc2ccc(F)cc2)n1 |  | inconclusive: 29.1 µM [activator, partial curve, poor fit]
36 | O=[N+]([O-])c1ccc2nc(NS(=O)(=O)c3ccc(F)cc3)sc2c1 |  | active: 7.31 µM
37 | O=c1c2ccccc2nc(/C=C/c2c[nH]c3ccccc23)n1-c1ccc([N+](=O)[O-])cc1 | inactive: -0.205% | 
38 | O=C(Cn1cnc2ccccc21)N/N=C/c1cccs1 | inactive: -0.286% | 
39 | O=C1c2c(Cl)c(Cl)c(Cl)c(Cl)c2C(=O)N1c1nccs1 | inactive: 8.75% | 
40 | COc1cc(NC(=O)c2ccccc2)c(C)cc1NC(=O)CC(CC(=O)O)c1ccccc1 (configuration not stated) | inactive: 4.47% | 
41 | CCNC(=O)c1c(NC(=O)c2cc(-c3cc(C)ccc3O)n[nH]2)sc2c1CCCC2 |  | inconclusive: 25.9 µM [activator, single point]
42 | CN(C)S(=O)(=O)c1ccc(C(=O)Nc2ccc(S(=O)(=O)NC3=NCCCCC3)cc2)cc1 |  | inconclusive: 32.6 µM [activator, partial curve, poor fit]
